# Test results published in PubChem BioAssay AID1347073 (National Center for Advancing Translational Sciences (NCATS), 2019).
# The whole screen tested about 45,000 compounds, of which about 200 (0.44%) were called active. About 7% were inconclusive and are not listed. The call rests on the fitted dose curve; in most records, active means well fitted activation curve with a large enough effect; inconclusive means small, poorly fitted or top-dose-only effect; inactive means no such curve, though single readings can be large or run the other way. This is one part of the list.
# Test: qHTS of TDP-43 Inhibitors: NCGC Sytravon Library Screen; further: 0% is about no effect; nearly all actives have a fitted effect of over 55% in size
# Details: yeast TDP-43 toxicity rescue, BacTiter-Glo growth, 24 h; series mostly up to 46.1 µM; growth rescue (activation): at the top concentration
# How it was run: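 TDP-43-expressing yeast, pregrown in raffinose, seeded at OD600 0.02 in galactose medium with compound for 24 hr at 30 deg C. Growth read by BacTiter-Glo luminescence, so rescue of toxicity appears as activation.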
row,Compound,growth rescue (activation)
1,COc1ccccc1OCC#CCn1ccnc1,inactive: -13.3%
2,COc1ccc(C(=O)NC(C)c2nnc(SCC(=O)NC3CCCC3)n2C)cc1 (centres undefined),inactive: -22.1%
3,O=C(CCN1C(=O)/C(=C/c2cccs2)SC1=S)NC1=NCCS1,inactive: 8.61%
4,CCCNC(=O)c1cc(C2CCCN(S(=O)(=O)c3ccccc3)C2)on1 (centres undefined),inactive: -0.543%
5,CCCOc1ccc(C(=O)NC(=S)NCc2cccnc2)cc1,inactive: 27.1%
6,CN(C)CCN[C@H]1CCC2C3CC=C4C[C@@H](O)CC[C@]4(C)C3CC[C@@]21C (some centres undefined),inactive: 11.7%
7,O=C(Nc1ccc(Br)cn1)c1cccc(-c2cc3ccccc3oc2=O)c1,inactive: -16.4%
8,CCOc1ccccc1NC(=S)NCc1cccn1C,inactive: -4.04%
9,CCC(C)NC(=O)Nc1ccc(Br)cc1 (centres undefined),inactive: -6.35%
10,CC1=CC(=C(C#N)c2nc3ccccc3s2)C=C(C)N1c1ccc(F)cc1,inactive: 8.1%
11,CC(NC(=O)c1ccccc1Br)c1nnc(SCC(=O)NC2CCCCC2)n1C (centres undefined),inactive: 6.51%
12,Cc1cccc(NC(=O)CN2CCC(C(=O)c3ccc4c(c3)OCCO4)CC2)c1,inactive: -1.37%
13,CCOCCn1c(=O)c2c(nc3n2CCCN3Cc2ccccc2)n(C)c1=O,inactive: 15.7%
14,CC1(C(=O)NS(=O)(=O)c2ccc(F)cc2F)CCN1C(=O)CCc1ccc(Cl)cc1Cl (centres undefined),inactive: -0.785%
15,CC[n+]1ccccc1/C=C/Nc1ccccc1,inactive: -0.821%
16,O=C(COC(=O)c1ccccc1)NC1CCCCCC1,inactive: -0.68%
17,CCCC(=O)Nc1cc(-c2nnc3c4ccccc4c(C)nn23)ccc1C,inactive: 6.15%
18,CCN(c1ccccc1)S(=O)(=O)c1nnc(NC(=O)C(C)C)s1,inactive: -16.9%
19,Cc1cc(/C=C(\C#N)C(=O)N2CCCCC2)cc(C)c1O,inactive: 13%
20,CC1=C(C(=O)Nc2ccccc2)C(c2cccs2)NC(=O)N1 (centres undefined),inactive: -5.61%
21,COCCC1CCCCN1C(=O)c1cccc(OC2CCN(S(C)(=O)=O)CC2)c1 (centres undefined),inactive: 11.8%
22,O=C(CSc1nnc2ccccn12)NNC(=O)c1ccccc1F,inactive: -14%

row,Compound,growth rescue (activation)
1,C=C(C)CNC(=S)N/N=C/c1ccc(NC(C)=O)cc1,inactive: 3.24%
2,CCN(Cc1nc(-c2ccccc2)no1)C(=O)c1ccc2c(c1)OCO2,inactive: 21.2%
3,COc1cc([N+](=O)[O-])cc2sc(NC(=O)C(C)(C)C)nc12,inactive: 0.527%
4,CC(C)Cn1cc(-c2cccc3nccn23)cn1,inactive: 7.08%
5,COc1ccc(S(=O)(=O)Nc2ccc(N3CCOCC3)cc2)cc1[N+](=O)[O-],inactive: 7.1%
6,O=C(Cc1ccc(-c2ccccc2)cc1)NC(c1ccccc1)c1ccccc1,inactive: 23.9%
7,CCCn1nnc(NC(=S)NC(=O)/C=C/c2ccc(Cl)cc2)n1,inactive: -5.44%
8,O=C(N/N=C/c1ccc(Cl)c([N+](=O)[O-])c1)c1cnccn1,inactive: 6.23%
9,CNCc1cc(Cl)cc(OC)c1OC(C)C,inactive: -13.6%
10,COc1ccc(/C(C)=N/NC(=O)c2cc(-c3cccnc3)nc3ccccc23)cc1,inactive: -3.26%
11,Cc1ccc2[nH]c(=O)c(CN(Cc3cccs3)S(=O)(=O)c3ccc4c(c3)OCCO4)cc2c1,inactive: -17.7%
12,S=c1nc(-c2cccc(Cl)c2)[nH][nH]1,inactive: -3.51%
13,COc1ccccc1NC(=O)C(C)N(C)CC(=O)Nc1cccc2ccccc12 (centres undefined),inactive: 25.1%
14,Cc1occc1C(=O)NCc1cccs1,inactive: -9.87%
15,CC(=O)Nc1cnc(-c2cccc(C(=O)N(C)C)c2)cn1,inactive: 6.24%
16,O=C(N/N=C/c1ccc([N+](=O)[O-])s1)c1ccncc1,inactive: -3.36%
17,CC(C)c1ccc(/C=C/C(=O)Nc2nncs2)cc1,inactive: 13.9%
18,Cc1cc(C)cc(NC(=O)CSc2nnc(CNC(=O)c3ccco3)o2)c1,inactive: -0.623%
19,CCc1cccc(NS(=O)(=O)c2ccc3c(c2)NC(=O)CC(=O)N3)c1,inactive: -0.355%
20,COc1cc([N+](=O)[O-])ccc1-c1ccc(/C=N/NC(N)=O)o1,inactive: 3.67%
21,CC1(C)NC(=O)N(CC(=O)OCC(=O)c2ccc(Cl)s2)C1=O,inactive: 11.4%
22,COc1ccc(OCCN2CCC(C(=O)NC(c3ccccn3)c3ccccc3OC)CC2)cc1 (centres undefined),inactive: -2.75%

row,Compound,growth rescue (activation)
1,CC(NC(=O)c1cc2ccccc2oc1=O)c1ccccc1 (centres undefined),inactive: 24.7%
2,COc1ccc(OC)c(/C=C/C(=O)NCCc2nc3ccccc3[nH]2)c1,inactive: 12.7%
3,CCNC(=O)NC(=O)C(C)OC(=O)C(C)(C)Oc1ccc(Cl)cc1 (centres undefined),inactive: -0.648%
4,Oc1ccccc1/C=N/N1CCN(c2ccccn2)CC1,inactive: 1.75%
5,CC(C)CN1C(=O)c2ccc(C(=O)Nc3ccccc3C(=O)O)cc2C1=O,inactive: -0.512%
6,C/C(=N\NC(=O)c1ccc(CN2CCc3ccccc3C2)cc1)c1ccccc1O,inactive: 12.2%
7,CC(=O)Nc1cccc(Nc2nc(-c3cccs3)nc3ccccc23)c1,inactive: -10.8%
8,O=C(COC(=O)C1CCCN1C(=O)c1cccs1)c1ccccc1 (centres undefined),inactive: -8.09%
9,COc1ccc(-n2c(C)c(C(=O)O)c3cc(OC)c4ccccc4c32)cc1,inactive: 10.1%
10,CCCn1c(SCC(=O)NC2CCCC2)nnc1C(C)C,inactive: -3.13%
11,CC1(C)C2CCC1(CS(=O)(=O)NCCc1c[nH]c3ccccc13)C(=O)C2 (centres undefined),inactive: 8.17%
12,Cc1ccc(Nc2nnc(SCc3cc(=O)n4cc(C)ccc4n3)s2)cc1,inactive: 5.48%
13,O=C1c2cccc3cccc(c23)C(=O)N1c1ccccn1,inactive: -13.9%
14,COc1ccc(C(C)=O)cc1CSc1ccc2c(c1)OCCO2,inactive: 14.2%
15,COc1ccc(OC)c(/C=C2\SC(N3CCCCC3)=NC2=O)c1,inactive: -2.96%
16,CC1CCN(CCCNc2cc(NCCO)c([N+](=O)[O-])c3nonc23)CC1,inactive: 0.896%
17,O=C1c2cccc([N+](=O)[O-])c2C(=O)N1c1c[nH]c(=O)[nH]c1=O,inactive: 7.83%
18,Cc1nc2ccc(NC(=S)NC3CCCCC3)cc2nc1C,inactive: 16.3%
19,O=C(NCC1CCCO1)C1CCC(CNS(=O)(=O)c2ccccc2)CC1 (centres undefined),inactive: -38.6%
20,CCOc1ccc(S(=O)(=O)N2CCCC(C(=O)NCCN3CCOCC3)C2)cc1Cl (centres undefined),inactive: -3.8%
21,Cc1ccc(C(=O)N/C(=C\c2ccc(-c3ccc(Cl)cc3)o2)C(=O)NCCCN(C)C)cc1,inactive: 8.7%
22,NS(=O)(=O)c1ccc(NC(=O)CSc2cn[nH]n2)cc1,inactive: -10.5%

row,Compound,growth rescue (activation)
1,O=C(NNC(=O)c1ccccc1O)c1ccco1,inactive: -5.04%
2,CCOc1ccc(NC(=O)CCC(=O)NNC(=O)NC2CCCCC2)cc1,inactive: -6.88%
3,CC(C)c1ccc(N(CC(=O)NCCCN2CCOCC2)S(=O)(=O)c2ccccc2)cc1,inactive: 24.9%
4,COc1ccc(-c2ocnc2C(=O)Nc2ccc3c(c2)CCC3)cc1,inactive: 10.2%
5,Cc1ccsc1CNCC(O)c1ccccc1 (centres undefined),inactive: -6.73%
6,O=C(Nc1ccc(Br)cc1)c1ccc(N2C(=O)C3CC=CCC3C2=O)cc1 (centres undefined),inactive: 12.3%
7,O=C(C[n+]1cccc(CNC(=O)c2ccc(OC(F)F)cc2)c1)Nc1cccc(C(F)(F)F)c1,inactive: 2.61%
8,COCCN(C(=O)CCC(=O)Nc1ccccn1)C(C(=O)NC(C)C)c1ccc(Cl)cc1 (centres undefined),inactive: -8.82%
9,COc1cccc(C(=O)OCC(=O)NCc2ccc3c(c2)OCO3)c1OC,inactive: -2.25%
10,Cn1cccc1C(=O)NC(=O)COC(=O)c1ccc(S(C)(=O)=O)c([N+](=O)[O-])c1,inactive: 2.36%
11,CCC(NC(=O)OCc1ccccc1)C(=O)Oc1ccc2ccc(=O)oc2c1 (centres undefined),inactive: -23.1%
12,C/C(=N\N=C1\NC(=O)CC(C(=O)O)S1)c1ccc(F)cc1 (centres undefined),inactive: 13.7%
13,CCc1cccc(CC)c1NC(=O)COn1nnc2ccc(C(F)(F)F)cc21,inactive: -23.5%
14,C/C(N)=C(/C#N)C(=O)CSc1n[nH]c(-c2ccccc2Br)n1,inactive: -19.1%
15,O=C(Cn1ncc2c3ccccc3n(Cc3cccc(Cl)c3)c2c1=O)NCC1CCCO1 (centres undefined),inactive: 4.77%
16,CCNC(=O)COC(=O)c1cccc(Br)c1,inactive: 29.8%
17,Cn1c(=S)ccc2ccccc21,inactive: 6.17%
18,Cc1nc(NC(=S)NC(=O)COc2ccccc2Cl)ccc1Br,inactive: 7.37%
19,c1cc(-c2ccc3nncn3c2)ccc1CN1CCOCC1,inactive: -10.6%
20,O=C(NC(=S)Nc1ccc(Br)cn1)c1cccnc1,inactive: -4.96%
21,COc1ccc(/C=N/NC(=O)c2cc3c(OC)ccc(OC)c3[nH]2)cc1O,inactive: 9.19%
22,COc1ccc(CNC(=O)C/C(C)=N/NC(=O)Cc2ccc(OC)cc2)cc1,inactive: 1.95%

row,Compound,growth rescue (activation)
1,O=c1c2ccccc2ncn1-c1ccccc1F,inactive: 5.75%
2,Cc1c(CN(C)Cc2cn(C)nc2-c2ccccc2F)[nH]c2ccccc12,inactive: -1.87%
3,CCOC(=O)Nc1ccc2c(COC(=O)C(NS(=O)(=O)c3ccc(Cl)cc3)C(C)O)cc(=O)oc2c1 (centres undefined),inactive: 14.7%
4,O=C(COc1ccc(S(=O)(=O)N2CCCCC2)cc1Cl)N1CCCC1,inactive: 1.07%
5,S=c1[nH]c(-c2ccccc2)cn1/N=C/c1cccs1,inactive: 21.6%
6,COCCNC(=O)C1(C)CCN(C(=O)C2(c3ccc(Cl)cc3)CCCC2)C1 (centres undefined),inactive: -2.2%
7,CCc1ccc(-n2c(=O)c3c(C)c(C)sc3n(CC(=O)NCC3CCCO3)c2=O)cc1 (centres undefined),inactive: 5.33%
8,O=C(Cc1ccc(Cl)c(Cl)c1)Nc1cccnc1,inactive: 4.02%
9,Cc1ccccc1C(=O)Nc1cccc(-c2cn3ccccc3n2)c1,inactive: 9.92%
10,CN1CCN(c2ccc(Cl)cc2NC(=O)c2nn(-c3ccccc3)c(=O)c3ccccc23)CC1,inactive: 4.24%
11,COc1cc(/C=C/C(=O)OCC(=O)N2CCN(S(=O)(=O)c3ccc(C)cc3C)CC2)ccc1O,inactive: 19.6%
12,OC[C@@H]1CN(Cc2ccc(F)cc2)C[C@H](n2cnc3c(NC4CC4)ncnc32)O1,inactive: 0.319%
13,CCCC1=NN(C(=O)C(=O)Nc2ccc(Br)cc2)C(O)(C(F)(F)F)C1 (centres undefined),inactive: 15%
14,CN(C)S(=O)(=O)N1CCN(C(=O)c2ccc3c(c2)OCO3)CC1,inactive: 20.1%
15,O=C(Nc1ccc(Br)cc1)c1cc(S(=O)(=O)Nc2ccccn2)ccc1Cl,inactive: 1.02%
16,COc1cccc(OC)c1OC(=O)/C=C/c1ccc(C)o1,inactive: 19.9%
17,O=C(NCCCN1CCOCC1)C(=O)c1c[nH]c2ccccc12,inactive: -13.1%
18,COc1ccc(/C(=N\O)c2ncc(C(F)(F)F)cc2Cl)cc1,inactive: 13.5%
19,CCc1ccc(NC(=O)COc2ccc(F)cc2C(=O)c2cnn(-c3ccccc3)c2)cc1,inactive: 14.7%
20,Cc1cc(C(=O)OCC(=O)Nc2cccc(S(N)(=O)=O)c2)c(C)o1,inactive: 25.8%
21,Cc1cc2nc(-c3ccc(NC(=O)c4ccc(OCC(C)C)cc4)cc3)oc2cc1C,inactive: -2.09%
